In paper PMC12040169 (PLOS Biology, 2025):
The other results are listed elsewhere or left out.

test system: T1, C. trachomatis L2/434/Bu expressing GFP (CTL2-GFP); set-up: species or system HeLa; C. trachomatis total inclusion area by high-content imaging, normalised to DMSO; details: total inclusion area; 28.5 h, 10 µM; inhibitor
T1 construct: L2/434/Bu GFP intracellular growth in HeLa cells
Method in brief: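 High-content images of fixed, Hoechst-stained infected cultures supply inclusion area and count (growth) plus nuclei number (viability), complementing bulk GFP/resorufin fluorescence. MIC determination is unchanged from the primary assay.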

SMILES	% of control remaining
O=C(Cn1ccnc1)NC(c1ccc(Cl)cc1)c1cccnc1 (stereo not shown) [CBK281481]	84.8894
N=c1c2c(-c3ccccc3)c(-c3ccccc3)n(Cc3ccccc3)c2ncn1CCN1CCOCC1 [CBK268537]	37.7013
CN1C[C@@H](C(=O)N(C)C)[C@@]2(CCc3ccccc3C(=O)N2)C1 [CBK284792]	109.546
Cc1nn(Cc2ccc(Cl)cc2)c(C)c1NC(=O)CSc1nc(-c2ccc(F)cc2)cc(C(F)(F)F)n1 [CBK266160]	86.8262
CC1(CNC(=O)c2ccccc2Cn2cccn2)COC1 [CBK281750]	105.562
CN(C)c1ccc(CC(=O)NC2Cc3ccccc3C2)cc1 [CBK200360]	107.496
CCCNC(=O)c1cc(C2CCCN(Cc3ccc(F)cc3)C2)no1 (stereo not shown) [CBK283387]	91.2555
O=C1COc2ccccc2C/C=C/CC2(CCN(C(=O)c3c[nH]cn3)CC2)C(=O)NCCN1 [CBK291990]	110.186
CCN(Cc1cncn1C)C(CC1CCCCC1)c1ccccc1 (stereo not shown) [CBK066815T]	83.4589
c1csc(CN2CCC(n3cnc4cccnc43)CC2)c1 [CBK283968]	104.078
Cc1ccc(-n2ncc3c2NC(=O)N2CCCN=C32)cc1 [CBK284416]	98.3567
O=c1c(Cc2ccc(Cl)cc2)c(O)ccn1Cc1ccncc1 [CBK291161]	108.407
COc1cc(NC(=O)c2ccc3c(c2)C(=O)N(Cc2cccnc2)C3=O)c(C(=O)O)cc1OC [CBK266802]	106.594
O=C(CCSc1ccc(Cl)cc1)NCCN1CCOCC1 [CBK269352]	93.2736
COc1cccc(C(=O)N2CCC(Cc3cccc(-c4cccs4)c3)(C(N)=O)CC2)c1 [CBK285781]	78.6698
COc1cc(F)cc(OC2CCNCC2)c1NC(=O)C1(c2ccccc2)CCCCC1 [CBK050241T]	82.5254
CCOC(=O)c1c(CSc2ccc(Cl)cc2)n(C)c2cc(Br)c(O)c(CN(C)C)c12 [CBK217489C]	76.9079
O=C(Nc1cccnc1)c1cccnc1C(=O)O [CBK269663]	101.203
CCNC(=O)N1CC2(CCN(CC(=O)c3ccsc3)CC2)c2ccccc21 [CBK144601T]	80.828
CC1(C(=O)NC2CCN(Cc3cccc(F)c3)CC2)CCCO1 (stereo not shown) [CBK282658]	136.712
O=C(O)C[C@@H]1CCN(C(=O)C2CCCCC2)C[C@@H]1CC1=NCCc2ccccc21 [CBK289158]	93.2345
CC(=O)N1C[C@@H]2CCCCN(CCc3ccc(F)cc3)[C@@H]2C1 [CBK285495]	98.1739
CC(C)Oc1ccc(C(=O)C2=C(O)C(=O)N(CCN(C)C)C2c2ccncc2)cc1 (stereo not shown) [CBK264907]	111.161
COC(=O)CCc1ccc(-c2cnc(N)c(-c3ccc(O)cc3)n2)cc1 [CBK122809]	43.5292
CS(=O)(=O)N(Cc1ccccc1)c1ccc(C(=O)N2CCN(Cc3ccccc3)CC2)cc1 [CBK264134]	82.2905

SMILES	% of control remaining
Cc1ccc(Cl)cc1NC(=O)CCn1cnc2ccccc2c1=O [CBK270103]	102.018
Cc1nnnn1-c1ccc(CC(=O)N2CCc3sccc3C2c2ccco2)cc1 (stereo not shown) [CBK285705]	90.3966
O=C(c1ccco1)N1CCN(c2cc(-c3cccnc3)ncn2)CC1 [CBK037833]	122.183
Cc1nc2cc(C(=O)N3CCc4[nH]c5ccccc5c4C3)ccc2n1C [CBK281842]	80.3627
CC(=O)Nc1ccc(-c2cncc(Nc3ccc(C#N)cc3)n2)cc1 [CBK066009]	138.718
O=C(O)C1CC=CCC1C(=O)NCc1ccc(N2CCCC2=O)cc1 (stereo not shown) [CBK270081]	98.607
CCOC(=O)C(C)n1nc(CC)n2c(cc3ccsc32)c1=O (stereo not shown) [CBK284127]	80.2534
CN(CCN1CCCCC1)C(=O)C1Cc2cc(Cl)ccc2O1 (stereo not shown) [CBK282640]	115.887
O=C(c1ccc2[nH]c(=O)[nH]c2c1)N1CCC2(CCN(C(=O)c3cc(F)c(F)cc3F)C2)C1 (stereo not shown) [CBK131407]	74.5991
NCc1ccc(CN(Cc2cnc(-c3ccccc3)[nH]2)C(=O)Nc2ccc3c(c2)OCO3)cc1 [CBK046158C]	75.2408
c1ccc(C(NCc2cnc(-c3ncccn3)s2)C2CCC2)cc1 (stereo not shown) [CBK304013]	72.6053
Cc1cccc(C(=O)NNC(=O)COc2cccc3ccccc23)c1O [CBK262993]	92.9573
O=C(NCc1cccc(C(F)(F)F)c1)N1CCN(CCN2CCOCC2)CC1 [CBK155671]	93.0344
COc1ccc(OC(C)(C)C(=O)N2CCCC(c3ccc(Nc4ncccn4)cn3)C2)cc1 (stereo not shown) [CBK285970]	101.343
O=C(CN1CCN(Cc2ccccc2)CC1)Nc1cccc(Cl)c1 [CBK267850]	111.093
O=C(C1C2CCCCC21)N1CCC(c2nnc3n2CCCCC3)CC1 (stereo not shown) [CBK283351]	96.5855
COc1cccc2sc(NC(=O)CN3CCOCC3)nc12 [CBK149281]	105.079
Cc1csc(C(Cc2ccsc2)NC(=O)C2CCOC2)n1 (stereo not shown) [CBK285150]	98.8715
Cc1nn(CC(=O)N2CCCCCC2)c(=O)c2cc3sccc3n12 [CBK284084]	94.9429
COc1ccc([C@@]23CC[C@@H](NC(=O)Nc4cccc(C#N)c4)C[C@@H]2N(C)CC3)cc1OC [CBK036448T]	84.5573
CN(CCCC(=O)Nc1nnc[nH]1)S(=O)(=O)c1ccccc1 [CBK267380]	91.1233
Cc1noc2c1[C@H]1[C@H](O)[C@H](O)C[C@H]1C1(CCC1)N2 [CBK303266]	53.1008
COc1ccc(C(=O)N2CCC3(CCCN(C(=O)c4cccnc4)C3)C2)cc1OC (stereo not shown) [CBK131668]	75.4205
Clc1cc2nc(OCCCc3ccncc3)c(N3CCCC3)nc2cc1Cl [CBK115774]	87.8308
